{
  "source": "the supplement of paper PMC8728848",
  "test_in_all_cases": "glycan array binding signal (z-score within array); higher = stronger binding",
  "settings_in_all_cases": "glycan notation: IUPAC condensed, linker removed",
  "key": {"[1]": {"target": "Fuc(a1-2)[Gal(a1-3)]Gal(b1-4)GlcNAc(b1-2)Man(a1-3)[Fuc(a1-2)[Gal(a1-3)]Gal(b1-4)GlcNAc(b1-2)Man(a1-6)]Man(b1-4)GlcNAc(b1-4)GlcNAc", "method_in_brief": "(§1)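 Columns mapping to the same glycan were averaged after glycan names were converted to IUPAC-condensed notation. The data come from 3228 arrays in the Consortium for Functional Glycomics database, limited to those with an available protein sequence. Binding is reported as a within-array Z-score averaged across arrays of one protein sequence and across linkers.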"}, "[2]": {"target": "Fuc(a1-2)[Gal(a1-3)]Gal(b1-4)[Fuc(a1-3)]GlcNAc", "method_in_brief": "as §1"}, "[3]": {"target": "Fuc(a1-2)[Gal(a1-4)]Gal(b1-4)GlcNAc", "method_in_brief": "as §1"}, "[4]": {"target": "Fuc(a1-2)[GalNAc(a1-3)]Gal", "method_in_brief": "as §1"}, "[5]": {"target": "Fuc(a1-2)[GalNAc(a1-3)]Gal(b1-3)GlcNAc", "method_in_brief": "as §1"}, "[6]": {"target": "Fuc(a1-2)[GalNAc(a1-3)]Gal(b1-3)GlcNAc(b1-2)Man(a1-3)[Fuc(a1-2)[GalNAc(a1-3)]Gal(b1-3)GlcNAc(b1-2)Man(a1-6)]Man(b1-4)GlcNAc(b1-4)GlcNAc", "method_in_brief": "as §1"}, "[7]": {"target": "Fuc(a1-2)[GalNAc(a1-3)]Gal(b1-4)Glc", "method_in_brief": "as §1"}, "[8]": {"target": "Fuc(a1-2)[GalNAc(a1-3)]Gal(b1-4)GlcNAc", "method_in_brief": "as §1"}, "[9]": {"target": "Fuc(a1-2)[GalNAc(a1-3)]Gal(b1-4)GlcNAc(b1-2)Man(a1-3)[GalNAc(a1-3)[Fuc(a1-2)]Gal(b1-4)GlcNAc(b1-2)Man(a1-6)]Man(b1-4)GlcNAc(b1-4)GlcNAc", "method_in_brief": "as §1"}, "[10]": {"target": "Fuc(a1-2)[GalNAc(a1-3)]Gal(b1-4)GlcNAc(b1-3)Gal(b1-4)GlcNAc", "method_in_brief": "as §1"}, "[11]": {"target": "Fuc(a1-2)[GalNAc(a1-3)]Gal(b1-4)GlcNAc(b1-3)Gal(b1-4)GlcNAc(b1-3)Gal(b1-4)GlcNAc", "method_in_brief": "as §1"}, "[12]": {"target": "Fuc(a1-2)[GalNAc(a1-3)]Gal(b1-4)[Fuc(a1-3)]GlcNAc", "method_in_brief": "as §1"}, "[13]": {"target": "Fuc(a1-2)[GalNAc(a1-4)]Gal(b1-4)GlcNAc", "method_in_brief": "as §1"}, "[14]": {"target": "Fuc(a1-2)[GalNAc(b1-3)]Gal", "method_in_brief": "as §1"}, "Fuc(a1-3)GlcNAc": {"target": "Fuc(a1-3)GlcNAc", "method_in_brief": "as §1"}, "[15]": {"target": "Fuc(a1-3)[Gal(b1-4)]Glc6S", "method_in_brief": "as §1"}, "[16]": {"target": "Fuc(a1-3)[Gal(b1-4)]GlcNAc", "method_in_brief": "as §1"}, "[17]": {"target": "Fuc(a1-3)[Gal(b1-4)]GlcNAc(b1-2)Man(a1-3)[Fuc(a1-3)[Gal(b1-4)]GlcNAc(b1-2)Man(a1-6)]Man(b1-4)GlcNAc(b1-4)GlcNAc", "method_in_brief": "as §1"}, "[18]": {"target": "Fuc(a1-3)[Gal(b1-4)]GlcNAc(b1-2)Man(a1-6)[Gal(b1-4)GlcNAc(b1-2)Man(a1-3)]Man(b1-4)GlcNAc(b1-4)GlcNAc", "method_in_brief": "as §1"}, "[19]": {"target": "Fuc(a1-3)[Gal(b1-4)]GlcNAc(b1-3)Gal(b1-3)[Fuc(a1-4)]GlcNAc", "method_in_brief": "as §1"}, "[20]": {"target": "Fuc(a1-3)[Gal(b1-4)]GlcNAc(b1-4)Gal(b1-4)[Fuc(a1-3)]GlcNAc", "method_in_brief": "as §1"}, "[21]": {"target": "Fuc(a1-3)[Gal(b1-4)]GlcNAc(b1-4)Gal(b1-4)[Fuc(a1-3)]GlcNAc(b1-4)Gal(b1-4)[Fuc(a1-3)]GlcNAc", "method_in_brief": "as §1"}, "[22]": {"target": "Fuc(a1-3)[Gal(b1-4)]GlcNAc6S", "method_in_brief": "as §1"}, "[23]": {"target": "Fuc(a1-3)[Gal3S(b1-4)]Glc6S", "method_in_brief": "as §1"}, "[24]": {"target": "Fuc(a1-3)[Gal3S(b1-4)]GlcNAc", "method_in_brief": "as §1"}, "[25]": {"target": "Fuc(a1-3)[Gal3S(b1-4)]GlcNAc6S", "method_in_brief": "as §1"}, "[26]": {"target": "Fuc(a1-3)[GalNAc(b1-4)]GlcNAc", "method_in_brief": "as §1"}, "Fuc(a1-4)GlcNAc": {"target": "Fuc(a1-4)GlcNAc", "method_in_brief": "as §1"}, "Fuc(b1-3)GlcNAc": {"target": "Fuc(b1-3)GlcNAc", "method_in_brief": "as §1"}, "Gal(a1-2)Gal": {"target": "Gal(a1-2)Gal", "method_in_brief": "as §1"}},
  "note": "This is one part of the list.",
  "data": [
    {"binder": "Neuropilin-2 (Homo sapiens), O60462 (protein) MDMFPLTWVFLALYFSRHQVRGQPDPPCGGRLNSKDAGYITSPGYPQDYPSHQNCEWIVYAPEPNQKIVLNFNPHFEIEKHDCKYDFIEIRDGDSESADLLGKHCGNIAPPTIISSGSMLYIKFTSDYARQGAGFSLRYEIFKTGSEDCSKNFTSPNGTIESPGFPEKYPHNLDCTFTILAKPKMEIILQFLIFDLEHDPLQVGEGDCKYDWLDIWDGIPHVGPLIGKYCGTKTPSELRSSTGILSLTFHTDMAVAKDGFSARYYLVHQEPLENFQCNVPLGMESGRIANEQISASSTYSDGRWTPQQSRLHGDDNGWTPNLDSNKEYLQVDLRFLTMLTAIATQGAISRETQNGYYVKSYKLEVSTNGEDWMVYRHGKNHKVFQANNDATEVVLNKLHAPLLTRFVRIRPQTWHSGIALRLELFGCRVTDAPCSNMLGMLSGLIADSQISASSTQEYLWSPSAARLVSSRSGWFPRIPQAQPGEEWLQVDLGTPKTVKGVIIQGARGGDSITAVEARAFVRKFKVSYSLNGKDWEYIQDPRTQQPKLFEGNMHYDTPDIRRFDPIPAQYVRVYPERWSPAGIGMRLEVLGCDWTDSKPTVETLGPTVKSEETTTPYPTEEEATECGENCSFEDDKDLQLPSGFNCNFDFLEEPCGWMYDHAKWLRTTWASSSSPNDRTFPDDRNFLRLQSDSQREGQYARLISPPVHLPRSPVCMEFQYQATGGRGVALQVVREASQESKLLWVIREDQGGEWKHGRIILPSYDMEYQIVFEGVIGKGRSGEIAIDDIRISTDVPLENCMEPISAFAGENFKVDIPEIHEREGYEDEIDDEYEVDWSNSSSATSGSGAPSTDKEKSWLYTLDPILITIIAMSSLGVLLGATCAGLLLYCTCSYSGLSSRSCTTLENYNFELYDGLKHKVKMNHQKCCSEA", "values": [
      {"measurement": "glycan array binding signal (z-score)", "setting": "[1]", "result": 0.426},
      {"measurement": "glycan array binding signal (z-score)", "setting": "[2]", "result": 0.942},
      {"measurement": "glycan array binding signal (z-score)", "setting": "[3]", "result": -0.019},
      {"measurement": "glycan array binding signal (z-score)", "setting": "[4]", "result": -0.268},
      {"measurement": "glycan array binding signal (z-score)", "setting": "[5]", "result": 0.73},
      {"measurement": "glycan array binding signal (z-score)", "setting": "[6]", "result": -0.324},
      {"measurement": "glycan array binding signal (z-score)", "setting": "[7]", "result": -0.637},
      {"measurement": "glycan array binding signal (z-score)", "setting": "[8]", "result": 0.014},
      {"measurement": "glycan array binding signal (z-score)", "setting": "[9]", "result": -0.112},
      {"measurement": "glycan array binding signal (z-score)", "setting": "[10]", "result": 0.079},
      {"measurement": "glycan array binding signal (z-score)", "setting": "[11]", "result": 0.497},
      {"measurement": "glycan array binding signal (z-score)", "setting": "[12]", "result": 0.753},
      {"measurement": "glycan array binding signal (z-score)", "setting": "[13]", "result": -0.846},
      {"measurement": "glycan array binding signal (z-score)", "setting": "[14]", "result": -0.222},
      {"measurement": "glycan array binding signal (z-score)", "setting": "Fuc(a1-3)GlcNAc", "result": -0.252},
      {"measurement": "glycan array binding signal (z-score)", "setting": "[15]", "result": 0.81},
      {"measurement": "glycan array binding signal (z-score)", "setting": "[16]", "result": 0.087},
      {"measurement": "glycan array binding signal (z-score)", "setting": "[17]", "result": -0.38},
      {"measurement": "glycan array binding signal (z-score)", "setting": "[18]", "result": -0.628},
      {"measurement": "glycan array binding signal (z-score)", "setting": "[19]", "result": 0.073},
      {"measurement": "glycan array binding signal (z-score)", "setting": "[20]", "result": 0.328},
      {"measurement": "glycan array binding signal (z-score)", "setting": "[21]", "result": -0.508},
      {"measurement": "glycan array binding signal (z-score)", "setting": "[22]", "result": 0.78},
      {"measurement": "glycan array binding signal (z-score)", "setting": "[23]", "result": 6.67},
      {"measurement": "glycan array binding signal (z-score)", "setting": "[24]", "result": 0.282},
      {"measurement": "glycan array binding signal (z-score)", "setting": "[25]", "result": 1.64},
      {"measurement": "glycan array binding signal (z-score)", "setting": "[26]", "result": -0.442},
      {"measurement": "glycan array binding signal (z-score)", "setting": "Fuc(a1-4)GlcNAc", "result": 0.104},
      {"measurement": "glycan array binding signal (z-score)", "setting": "Fuc(b1-3)GlcNAc", "result": -0.508},
      {"measurement": "glycan array binding signal (z-score)", "setting": "Gal(a1-2)Gal", "result": 0.8}
    ]}
  ]
}
